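Assay format: 96-well plates, 48-hour exposure. At the GI50, growth is halved.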 For part of its entries the source gives two or more results. Only these are listed. The source may hold further records. For some of these results: Values given together are repeated measurements (runs, samples, wells, individuals or studies). Marks in square brackets tell the records apart. Letters hold for one entry only.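 The concentration for full growth arrest is given as TGI.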 For some of these results: Records of one sample usually come from different ranges of test concentrations, which the source does not state; some values may only mark the edge of a range.
Assays:
Assay in all cases: DTP human tumour cell line panel, 48 h
MDA-MB-435 = test system: MDA-MB-435
MALME-3M melanoma = test system: MALME-3M melanoma
SK-MEL-2 melanoma = test system: SK-MEL-2 melanoma
NCI-H23 lung = test system: NCI-H23 lung
PC-3 prostate = test system: PC-3 prostate
HCC-2998 colon = test system: HCC-2998 colon
LOX IMVI melanoma = test system: LOX IMVI melanoma
NCI-H460 lung = test system: NCI-H460 lung
HOP-62 NSCLC = test system: HOP-62 NSCLC
SF-539 CNS = test system: SF-539 CNS
MOLT-4 leukemia = test system: MOLT-4 leukemia
A498 renal = test system: A498 renal
MCF7 breast = test system: MCF7 breast
OVCAR-3 ovarian = test system: OVCAR-3 ovarian
SK-MEL-5 melanoma = test system: SK-MEL-5 melanoma
T-47D breast = test system: T-47D breast
OVCAR-4 ovarian = test system: OVCAR-4 ovarian
OVCAR-8 ovarian = test system: OVCAR-8 ovarian
SW-620 colon = test system: SW-620 colon
KM12 colon = test system: KM12 colon

Row | SMILES | GI50 (MDA-MB-435) | TGI (MALME-3M melanoma) | TGI (SK-MEL-2 melanoma) | TGI (NCI-H23 lung) | TGI (PC-3 prostate) | TGI (HCC-2998 colon) | TGI (LOX IMVI melanoma) | TGI (NCI-H460 lung) | TGI (HOP-62 NSCLC) | TGI (SF-539 CNS) | TGI (MOLT-4 leukemia) | TGI (A498 renal) | TGI (MCF7 breast) | TGI (OVCAR-3 ovarian) | TGI (SK-MEL-5 melanoma) | TGI (T-47D breast) | TGI (OVCAR-4 ovarian) | TGI (OVCAR-8 ovarian) | TGI (SW-620 colon) | TGI (KM12 colon)
1 | CN(C)CCOc1ccc(-c2nc(-c3ccc4c(c3)CC/C4=N\O)c(-c3ccncc3)[nH]2)cc1 | 62.4 nM [sample A, mean of 2 tests] and 1.46 µM [sample B, mean of 2 tests] | 21.3 nM [sample A, mean of 2 tests] and 2 µM [sample B, mean of 2 tests] | 1.48 µM [sample A, mean of 2 tests] and 24 µM [sample B, mean of 4 tests] |  |  |  |  |  |  |  |  |  |  |  |  |  |  |  |  | 
2 | COc1cc(C2c3[nH]c4ccccc4c3C[C@H]3COC(=O)N23)cc(OC)c1OC (some centres not stated) |  |  |  | 4.05 µM and > 100 µM | 6.8 µM and > 100 µM | 566 nM and 47 nM | 3.28 µM and > 100 µM | 3.84 µM and > 100 µM | 8.37 µM and > 100 µM | 108 nM and < 10 nM | 4.89 µM and 317 nM | 763 nM and < 10 nM | 7.86 µM and > 100 µM | 134 nM and < 10 nM | 80.2 nM and 26.7 µM |  |  |  |  | 
3 | CC(C)[C@]12O[C@H]1[C@@H]1O[C@]13[C@]1(O[C@H]1C[C@H]1C4=C(CC[C@@]13C)C(=O)OC4)[C@@H]2O |  |  |  |  | 94.3 nM [sample A] and > 100 µM [sample B] |  |  |  | 240 nM [sample A] and > 100 µM [sample B] |  |  |  |  |  |  | 72.6 nM [sample A, 1 test] and > 100 µM [sample B, mean of 2 tests] | 27.4 nM [sample A] and 304 nM [sample B] | 148 nM [sample A] and > 100 µM [sample B] | 136 nM [sample A] and > 100 µM [sample B] | 198 nM [sample A] and > 22.6 µM [sample B]

From PubChem BioAssay (NCI)
